Screen size: about 370,000 compounds; about 150 (0.041%) were called active. The inconclusive results got no clear call from the source; some entries with a clear call stand among them for comparison. The call rests on the fitted dose curve; in most records, active means well fitted inhibition curve with a large enough effect; inconclusive means small, poorly fitted or top-dose-only effect; inactive means flat fitted curve, though single readings scatter. Potencies of inconclusive entries are left out as doubtful fits.
biological target: Beta-lactamase (Escherichia coli (strain K12)) (UniProt P00811); assay: qHTS Inhibitors of AmpC Beta-Lactamase (assay with detergent); settings: AmpC hydrolysis of nitrocefin, absorbance 480 nm, 0.01% Triton; series mostly up to 114 µM; further: nearly all actives have a fitted effect of over 25% in size
Method in brief: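 20 mM phosphate pH 7.0 + 0.01% (detergent screen) or 0.0001% Triton X-100; 5.3 nM AmpC reagent; cpd preinc 15 min RT; nitrocefin (800 uM stock) to start; A480 q20 s × 4 min; Activity was normalised to no-enzyme and no-compound control wells.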
Potency means the concentration at half of the fitted maximal effect; tags describe the fitted curve by direction and shape.

Sequence of UniProt P00811 (P00811 whole entry, looked up): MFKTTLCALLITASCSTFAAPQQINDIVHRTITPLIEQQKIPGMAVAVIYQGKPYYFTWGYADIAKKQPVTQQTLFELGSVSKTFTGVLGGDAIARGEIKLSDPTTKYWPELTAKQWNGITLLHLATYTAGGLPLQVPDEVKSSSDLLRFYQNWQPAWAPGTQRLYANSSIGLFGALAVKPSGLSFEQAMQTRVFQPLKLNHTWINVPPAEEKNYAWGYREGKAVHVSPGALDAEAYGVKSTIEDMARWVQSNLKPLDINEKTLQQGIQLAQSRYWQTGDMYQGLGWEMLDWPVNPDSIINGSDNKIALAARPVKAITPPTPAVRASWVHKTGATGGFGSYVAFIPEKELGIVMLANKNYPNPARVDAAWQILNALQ

SMILES | Potency
CCS(=O)(=O)N1CCN(C2CCC(C)CC2)CC1 (centres undefined) | inconclusive [inhibitor, full curve]
c1ccc(-n2cnc3cc(NCc4cccs4)ccc32)cc1 | inactive
O=C(COC(=O)Cn1nc(-c2ccccc2)oc1=O)Nc1ccc(F)cc1 | inconclusive [inhibitor, full curve, poor fit]
O=S(=O)(Nc1ccc(F)c(C(F)(F)F)c1)c1ccc(N2CCCCS2(=O)=O)cc1 | inactive
CCCN(CC(=O)Nc1ccccc1C)C(=O)C1CC(=O)N(Cc2ccccc2)C1 (centres undefined) | inconclusive [inhibitor, full curve, poor fit]
COc1cc2nc(N(CCCN(C)C)C(=O)c3ccc(C(=O)c4ccccc4)cc3)sc2cc1OC | inconclusive [inhibitor, full curve, poor fit]
Cc1cccc(NC(=O)c2ccc3ccccc3n2)c1C | inactive
CCn1cc(C(=O)NCc2ccccc2OC)c(=O)c2ccc(C)nc21 | inconclusive [inhibitor, full curve, poor fit]
COc1ccc(C(=O)Nc2ccc(NC(=O)c3ccccc3F)cn2)cc1 | inactive
CCOc1ccccc1/C=C/c1nc2ccccc2[nH]c1=O | inactive
Oc1cccc(C2c3[nH]c4ccccc4c3CCN2Cc2ccoc2)c1 (centres undefined) | inactive
COc1ccc(Cl)cc1C(=O)NNC(=O)c1csc(N2CCOCC2)n1 | inactive
O=C(Cn1nnc(-c2ccccc2Cl)n1)N1CCN(S(=O)(=O)c2ccc(Cl)cc2)CC1 | inconclusive [inhibitor, full curve, poor fit]
CC1CCN(S(=O)(=O)c2ccc3c(c2)N(CC(=O)NCc2ccccc2Cl)C(=O)CS3)CC1 | inactive
Cc1cccc(NC(=O)/C(C#N)=C/c2ccccc2O)n1 | inactive
NCCNCCNCCN | inconclusive [inhibitor, full curve, poor fit]
NC(=O)CSc1nc2ccc(NC(=O)COc3ccccc3)cc2s1 | inactive
CCc1ccc(C(=O)Nc2nc3ccccc3[nH]2)cc1 | inconclusive [inhibitor, partial curve]
Cc1cc(C)cc(N(CC(=O)NC(C)(C)C)C(=O)CCC(=O)Nc2nccs2)c1 | inconclusive [inhibitor, full curve, poor fit]
Cc1ccc(-c2nnc(SCC(=O)CC(=O)Nc3ccccc3)n2C)cc1 | inconclusive [inhibitor, partial curve, poor fit]
CC(=O)NS(=O)(=O)c1ccc(NC(=O)COc2cccc3c2OC(C)(C)C3)cc1 | inconclusive [inhibitor, full curve, poor fit]
CCCCCn1c(N)c(-c2nc3ccccc3s2)c2c([N+](=O)[O-])nn(C)c(=O)c21 | inactive
O=C(NCc1ccco1)C1CCCN(S(=O)(=O)c2cnc[nH]2)C1 (centres undefined) | inconclusive [inhibitor, partial curve, poor fit]

SMILES | Potency
COc1ccccc1C(=O)ON=C1c2ccccc2-c2ccccc21 | inconclusive [inhibitor, full curve, poor fit]
CC[C@@H](C)C(C(=O)N1CCN(C(=O)OC(C)(C)C)CC1)n1cc(-c2cn([C@@H](C)C(=O)N3CCN(C(=O)OC(C)(C)C)CC3)nn2)nn1 (some centres undefined) | inactive
CCOC(=O)N/N=C(/C)c1ccc([N+](=O)[O-])o1 | inconclusive [inhibitor, full curve, poor fit]
CC(C)(C)N(C(=O)Cn1nnc(-c2ccc(F)cc2)n1)C(C(=O)NC1CCCC1)c1ccncc1 (centres undefined) | inactive
N=c1n(CCN2CCCCC2)c2ccccc2n1CC(O)c1ccc(Cl)c(Cl)c1 (centres undefined) | inactive
CCOn1c(=O)c(-c2cc3ccccc3o2)[n+]([O-])c2ccccc21 | inconclusive [inhibitor, full curve]
CC1CCN(CCCNC(=O)c2ccc(CSCc3cccc(Cl)c3)o2)CC1 | inconclusive [inhibitor, full curve, poor fit]
Cc1cc(C)c2nc3nc(C)cc(C)c3c(N)c2c1 | inconclusive [inhibitor, single point]
Cc1[nH]c2ccc(C(=O)OC(C)C(=O)NC3(C#N)CCCCC3)cc2c1C (centres undefined) | inconclusive [inhibitor, single point]
CCCc1nn2c(=O)cc(CSCC(=O)Nc3ccccc3OC)nc2s1 | inconclusive [inhibitor, full curve, poor fit]
Cc1ccc(C(=O)NCCSc2c(C)[nH]c3ccccc23)cc1C | inactive
COc1ccc(-c2nc(S(=O)(=O)c3ccc(Cl)cc3)c(N3CCCCCC3)o2)cc1 | inactive
CCn1c(SCC#N)nc2cc(S(=O)(=O)N3CCOCC3)ccc21 | inactive
Cc1cc(C(=O)NC(Cc2c[nH]c3ccccc23)C(=O)O)c(C)o1 (centres undefined) | inconclusive [inhibitor, full curve, poor fit]
COc1ccc(/C=C/C(=O)N2CCC(C(N)=O)CC2)cc1S(=O)(=O)N1CCOCC1 | inactive
Cc1cc(C)c2c(-n3cccc3)c(NC(=O)OCc3ccccc3)sc2n1 | inconclusive [inhibitor, full curve, poor fit]
O=C(O)C1CCCCC1C(=O)NCCc1c[nH]c2ccccc12 (centres undefined) | inconclusive [inhibitor, full curve, poor fit]
COC(=O)c1cc2occc2n1Cc1ccc(F)cc1Cl | inactive
Cc1ccc(NC(=O)CN2C(=O)CSc3ccc(S(=O)(=O)N(C)C)cc32)cc1C | inactive
COc1ccc(OC)c(NC(=O)CSc2sc3c(O)cc(=O)[nH]c3c2C#N)c1 | inactive
Cc1c(C(=O)N2CCc3ccccc3C2)oc2ccc(S(=O)(=O)N3CCCCCC3)cc12 | inconclusive [inhibitor, single point]
CCn1cc(CNC(=O)c2cc([N+](=O)[O-])c(C)c([N+](=O)[O-])c2)cn1 | inconclusive [inhibitor, full curve, poor fit]
Cc1ccccc1CSc1nnc([C@@H]2CCCN2)o1 | inconclusive [inhibitor, full curve, poor fit]

SMILES | Potency
O=C(O)CSc1nnc(COc2ccc(Br)cc2)n1-c1ccccc1 | inconclusive [inhibitor, partial curve, poor fit]
COc1cccc(OC)c1C(=O)Nc1ccc([N+](=O)[O-])cn1 | inconclusive [inhibitor, partial curve]
Cc1c(C(=O)N2CCN(C(=O)c3ccco3)CC2)sc2nc(-c3ccc(F)cc3)cn12 | inconclusive [inhibitor, full curve, poor fit]
COc1ccc(CCNC(=O)c2cccc(S(=O)(=O)N3CCCCC3)c2)cc1 | inactive
Cc1ccc(CC2CC(=O)N(CC(=O)O)C2=O)cc1 (centres undefined) | inconclusive [inhibitor, full curve, poor fit]
Cn1cc(-c2ccccc2C(N)=O)c(=O)c2ccccc21 | inconclusive [inhibitor, full curve]
CCc1cc2c(=O)c(-c3cnn(-c4ccccc4)c3)c(C(F)(F)F)oc2c(CN(C)C)c1O | inconclusive [inhibitor, single point]
Cc1ccc2nc(NC(=O)c3ccc4ncsc4c3)sc2c1 | inconclusive [inhibitor, full curve]
O=C(Nc1ccc2c(c1)OCO2)c1ccc(CO)cc1 | inactive
CCN(C(=O)COC(=O)c1cc(C)oc1C)c1c(N)n(Cc2ccccc2)c(=O)[nH]c1=O | inconclusive [inhibitor, full curve, poor fit]
CN1CC(=O)N(CC(=O)Nc2ccc(F)cc2)c2ccccc2C1=O | inconclusive [inhibitor, single point]
CCOc1cccc(=NC2CCCCC2)c2c(C)n(C)c(C)c12 | inactive
CCOC(=O)Cn1c(=O)oc2cc(S(=O)(=O)N3CCN(c4ccccn4)CC3)ccc21 | inconclusive [inhibitor, full curve, poor fit]
Cc1ccc(Nc2nc(-c3ccc(S(=O)(=O)N4CCOCC4)cc3)cs2)cc1Cl | inactive
CC1(C)CC(=O)c2cc(C(=O)Nc3ccc(Cl)cc3)c(=O)[nH]c2C1 | inactive
CN(Cc1ccc(C(C)(C)C)cc1)C(=O)c1ccc2c(=O)n3c(nc2c1)CCC3 | inconclusive [inhibitor, partial curve, poor fit]
Cc1ccc(CS(=O)Cc2ccc(C(=O)NC3CCCC(C)C3C)o2)cc1 (centres undefined) | inconclusive [inhibitor, full curve, poor fit]
CCOC(=O)c1[nH]c2ccc(OC)cc2c1NC(=O)c1cccc(OC)c1 | inconclusive [inhibitor, partial curve, poor fit]
COC(=O)CN1C(=O)C2(OCCCO2)c2ccccc21 | inconclusive [inhibitor, full curve]
O=[N+]([O-])c1cc(Cl)cc(/C=N/Nc2nc3ccccc3s2)c1O | inactive
COc1ccc(N=c2scc(C)n2CCCN2CCCC2=O)cc1 | inconclusive [inhibitor, full curve, poor fit]
COc1ccc(CNC(=O)Nc2ccc(C)cc2)cc1 | inconclusive [inhibitor, full curve, poor fit]
O=C1OC(Nc2ccccn2)c2ccccc21 (centres undefined) | inconclusive [inhibitor, single point]
